Among all 310,000 compounds or so, about 2,200 (0.71%) showed an effect of 50% or more. The effect is printed as a negative number. Some of the results follow.
molecular target: human ether-à-go-go-related gene (hERG) potassium channel (human, UniProt Q12809); assay: primary screen, population patch clamp on CHO cells stably expressing hERG
Sequence (Q12809 whole entry, looked up): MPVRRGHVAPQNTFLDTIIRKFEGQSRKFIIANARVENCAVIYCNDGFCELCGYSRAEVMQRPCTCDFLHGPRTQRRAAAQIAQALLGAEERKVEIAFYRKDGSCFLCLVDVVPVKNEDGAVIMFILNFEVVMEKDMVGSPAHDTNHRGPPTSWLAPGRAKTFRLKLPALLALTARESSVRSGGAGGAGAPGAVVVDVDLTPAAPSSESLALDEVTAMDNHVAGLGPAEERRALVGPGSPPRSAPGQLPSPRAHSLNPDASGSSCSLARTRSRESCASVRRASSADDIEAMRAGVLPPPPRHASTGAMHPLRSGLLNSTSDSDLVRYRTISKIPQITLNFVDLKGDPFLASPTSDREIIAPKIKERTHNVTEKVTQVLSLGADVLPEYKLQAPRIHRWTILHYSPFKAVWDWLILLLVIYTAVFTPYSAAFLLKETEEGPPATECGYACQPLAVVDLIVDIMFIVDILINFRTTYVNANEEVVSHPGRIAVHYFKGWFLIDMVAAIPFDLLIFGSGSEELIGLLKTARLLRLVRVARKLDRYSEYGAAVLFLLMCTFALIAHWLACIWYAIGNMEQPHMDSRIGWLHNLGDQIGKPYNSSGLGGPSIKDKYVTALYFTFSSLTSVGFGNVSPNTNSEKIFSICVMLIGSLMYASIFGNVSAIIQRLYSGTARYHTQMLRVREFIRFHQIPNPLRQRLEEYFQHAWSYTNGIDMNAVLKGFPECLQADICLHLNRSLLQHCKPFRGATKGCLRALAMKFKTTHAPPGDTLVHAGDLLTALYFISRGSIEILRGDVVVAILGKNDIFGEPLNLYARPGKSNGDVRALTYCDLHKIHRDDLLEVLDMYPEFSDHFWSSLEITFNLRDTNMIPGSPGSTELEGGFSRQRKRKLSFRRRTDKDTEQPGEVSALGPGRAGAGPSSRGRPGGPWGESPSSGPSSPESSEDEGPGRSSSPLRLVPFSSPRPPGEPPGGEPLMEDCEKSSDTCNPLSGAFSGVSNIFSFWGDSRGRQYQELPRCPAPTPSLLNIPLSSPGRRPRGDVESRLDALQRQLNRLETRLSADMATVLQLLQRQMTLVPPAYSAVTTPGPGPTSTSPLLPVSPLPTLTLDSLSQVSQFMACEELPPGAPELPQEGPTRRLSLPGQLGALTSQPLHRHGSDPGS

SMILES	hERG current change (%, negative = inhibition) at 1uM [%]
CCCn1ncc(OC)c(Cl)c1=O	13.1
Cc1cc(NC(=O)CN2C(=O)NC(Cc3ccccc3)C2=O)no1 (centres unmarked)	1.73
CCOC(=O)CSc1nc2sc3c(c2c(=O)n1-c1ccccc1)CCN(C(C)C)C3	14
CCc1cc2c(N[C@@H](Cc3ccccc3)C(=O)O)ncnc2s1	14.4
Clc1cc(/C=N\NC2=NCCN2)cc(Cl)n1	-0.437
Nn1c(SCC(=O)Nc2ccc(F)cc2F)nnc1C1CCCCC1	-1.02
CCN1CCN(CCC(=O)Nc2cccc(OC)c2)CC1.Cl	-3.67
CCN(CC)CCNC(=O)c1cn(CC)c2ccc(S(=O)(=O)N3CCOCC3)cc2c1=O	16.9
CCOc1cc(NC(=S)NCCCN2CCOCC2)c(OCC)cc1NC(=O)c1cccc(F)c1	-0.782
CCOc1ccccc1-n1c(SCC(N)=O)nc2ccccc2c1=O	-2.44
COc1ccc(S(=O)(=O)N2c3ccccc3NC(=O)CC2C)cc1 (centres unmarked)	5.59
O=C(CCN1c2ccccc2Sc2ccccc21)OCc1nnc(-c2ccccc2)o1	11.5
CCOC(=O)c1c(C)c(C(=O)NCCOC)c(C)n1CC	-2.65
Nn1c(SCC(=O)N2CCCCC2)nnc1-c1ccncc1	11.9
Cc1ccc(OCC(=O)NN2C(=O)c3ccccc3C2=O)cc1	3.38
Cc1ccc(Cn2ncc(C)c2N)o1	14.1
CCOC(=O)C(=NC(C)(C)C)NNc1cc(Cl)ccc1Cl	6.25
COc1ccc(Cc2nnc(NC(=O)C3CC(=O)N(c4ccccc4C)C3)s2)cc1OC (centres unmarked)	14.8
O=C1C2C(C(=O)N1/N=C/c1cc([N+](=O)[O-])c(O)cc1O)C1C=CC2C12CC2 (centres unmarked)	4.77
CC1=Nn2c(nnc2-c2ccccn2)SC1	-1.54
Cc1ccc(S(=O)(=O)N2CCN(S(=O)(=O)c3ccc(C)cc3)C2)cc1	5.65
COc1cc(NC(=O)c2cccnc2)ccc1NC(=O)c1ccccc1Cl	14
CCc1cc(SC#N)ccc1N	9.67

SMILES	hERG current change (%, negative = inhibition) at 1uM [%]
CC(C)CNC(=O)c1cccc(Cn2cc(Cl)cn2)c1	16.8
O=C(CSc1nnc(CNC(=O)c2c(F)cccc2F)o1)NCc1ccco1	15.9
O=C(COc1ccc(S(=O)(=O)N2CCOCC2)cc1)NC1CCCC1	-7.06
O=C1CSC(c2ccccc2)N1c1ccccc1F (centres unmarked)	1.19
O=C(O)c1cc(S(=O)(=O)Nc2ccc3cn[nH]c3c2)ccc1O	8.3
COC/C=C/C1=CC2=CC(=O)C(C)(OC(=O)CCC(=O)OC)C(=O)C2=CO1 (centres unmarked)	8.02
CCCNC(=O)c1c(N)n(Cc2ccco2)c2nc3ccccc3nc12	8.24
O=C(CN(Cc1ccc(F)cc1)S(=O)(=O)c1ccc(S(=O)(=O)N2CCOCC2)cc1)Nc1ccccc1	5.94
Cc1sc2ccccc2[n+]1CC(=O)O.[Br-]	12.3
COC(=O)CSCC(=O)Nc1nnc(-c2cccc(C)c2)s1	6.73
COc1ccc(C(CNC(=O)CN2C(=O)NC3(CCCC3)C2=O)N(C)C)cc1 (centres unmarked)	13.2
Cc1ccnc(NC(=O)CNC(=O)c2ccco2)c1	9.8
CCOc1ccc(C(=O)Nc2cc(Cl)ccc2-n2cncn2)cc1OC	10.5
Cc1ccc(S(=O)(=O)N(C)C)cc1NC(=O)CN1C(=O)NC(Cc2ccccc2)C1=O (centres unmarked)	15.9
Cc1cc(N2C(=O)C3C4C=CC(C4)C3C2=O)no1 (centres unmarked)	16.5
O=C(Nc1cccc(C(F)(F)F)c1)c1cccnc1	0.882
CN(C)c1ccc2nsnc2c1[N+](=O)[O-]	11
COCc1cc(C(C)=O)ccc1OC	-0.348
Cc1ccc(S(=O)(=O)c2cn(Cc3ccc(F)cc3)c3cc4c(cc3c2=O)OCO4)cc1	1.24
CCC(=O)O.O=C(Nc1cccc(C2=NCCN2)c1)Nc1cccc(C2=NCCN2)c1	2.28
COc1cccc(CN2CCN(C3CCN(c4ccccc4F)CC3)CC2CCO)c1 (centres unmarked)	-28.4
Clc1ccc(-n2nnnc2-c2cnc3ccccc3c2-c2ccccc2)cc1	8.35
Clc1ccccc1N1CCN(c2ncnc3nc[nH]c23)CC1	13.7

SMILES	hERG current change (%, negative = inhibition) at 1uM [%]
O=S(=O)(Nc1ccc(-c2cn3cccnc3n2)cc1)c1ccccc1	1.21
O=C(Nc1cccc(Br)c1)c1ccc(CSc2ccccc2)cc1	3.76
O=C(OCCN1CCN(C2=NS(=O)(=O)c3ccccc32)CC1)c1ccccc1F	12.2
COc1ccc(CNC(=O)CCN2C(=O)c3ccccc3C2=O)cc1OC	14.7
CC1=NOC(=O)/C1=C/c1ccc2c(c1)OCO2	7.68
CCC1(CC)C(=O)NC(=O)NC1=Nc1cccc(OC)c1	8.24
c1ccc(OCc2nc(-c3ccncc3)no2)cc1	6.55
Cn1cccc1C(=O)NC(=O)COC(=O)c1ccccc1Sc1ccccc1C#N	-2.72
CC(=O)Nc1ccc(/C(C)=N/NC(=O)CN(c2ccccc2Br)S(C)(=O)=O)cc1	11.9
CCCOc1ccc(C(=O)Nc2ccc(CN3CCOCC3)cc2)cc1	14.4
O=C(C1=C[C@@H](c2ccccc2)C[C@@H](OCc2ccc(CO)cc2)O1)N1CCOCC1	5.09
O=c1/c(=C\c2ccc(F)cc2)sc2n1CCCN=2	8.88
COC(=O)c1cc(NC(=O)CC2C(=O)NCCN2C(=O)c2ccc(F)cc2)cc(C(=O)OC)c1 (centres unmarked)	3.17
O=c1[nH]c(C2CCCN(S(=O)(=O)Cc3ccccc3)C2)nc2c1nnn2Cc1cccc(Cl)c1 (centres unmarked)	16
O=C(Cn1c(CN2CCCCC2)nc2ccccc2c1=O)NC1CCCCC1	11.6
CCOC(=O)C1CCN(C2=NC(=O)/C(=C/c3ccc(O)cc3)S2)CC1	-17.8
O=C(CNC(=O)c1ccc(Cl)cc1)c1ccc(Br)cc1	7.35
CCCCCc1cc(=O)oc2c(C(CCN3CCCCC3)c3ccc(OC)cc3)c(OC)cc(OC)c12 (centres unmarked)	1.13
Cc1cc(N2CC34C=CC(O3)C(C(=O)O)C4C2=O)no1 (centres unmarked)	8.44
CC(=O)c1cccc(NC(=O)c2cccc(N3C(=O)c4ccccc4C3=O)c2)c1	-8.83
CCN(CC)c1ccc(C=C2C(=O)N(C)C(=S)N(C)C2=O)o1	8.41
Cc1cccc(CN2C[C@]34CC[C@@H](C[C@@H]3S2(=O)=O)O4)c1	9.43
COc1ccc(N2CCN(C(=O)c3[nH]c4ccc(OC)cc4c3C)CC2)cc1	7.08

SMILES	hERG current change (%, negative = inhibition) at 1uM [%]
Cn1c(N)c(C(=O)COC(=O)c2cc(C3CC3)nc3ccccc23)c(=O)n(Cc2ccccc2)c1=O	17.4
O=c1c2ccccc2nc2n1CCC2O (centres unmarked)	10.1
Cc1cc(C)c(NC(=O)CN(C2CCCCC2)C2CCCCC2)c(C)c1	2.14
O=C(NC1CCCCCC1)c1nnc(Cc2ccc(Cl)cc2)o1	4.44
COc1ccc(/C=C(/NC(=O)c2ccccc2)C(=O)NC2CCS(=O)(=O)C2)cc1 (centres unmarked)	7.67
CCC(=O)N1CCN(c2ccc(Cl)cc2NC(=O)c2ccc(N3CCCC3)c([N+](=O)[O-])c2)CC1	-2.71
Cc1cc(C(=O)COC(=O)C2=COCCO2)c(C)n1-c1cccc(F)c1	-13.6
CC(=O)c1cccc(S(=O)(=O)N2CCC(c3nc4ccccc4[nH]3)CC2)c1	-26.6
CCC1CCCCN1C(=O)CSc1nnc(-c2ccc(Cl)s2)o1 (centres unmarked)	-5.94
Cc1cc(C)n(C(=O)C(C)N2C(=O)c3ccccc3C2=O)n1 (centres unmarked)	-6.66
COCCCNC(=O)CCc1nc2cccnc2n1Cc1ccc(OC)cc1	9.04
COc1cccc(NC(=O)C(=O)NCc2ccncc2)c1	5.8
COC(=O)c1cn(-c2ccccc2)c(=O)c2ccccc12	15.6
N#Cc1ccc(CSc2nnc(-c3c[nH]c4ccccc34)n2-c2ccccc2)cc1	9.98
COc1cccc(C(=O)COC(=O)c2n[nH]c(=O)c3ccccc23)c1	11
COc1ccc(-c2cnnn2-c2ccc(N)cc2)cc1OC	-0.309
COc1ccc(/C=N/NC(=O)c2cccc(NC(=O)c3ccccc3Cl)c2)cc1OC	11.9
CCOC(=O)c1ccc(NC(=O)C2(c3ccc(Cl)cc3)CCCC2)cc1	0.764
CCN(Cc1ccccc1)C(=O)CN1C(=O)NC(CC)(c2ccc(F)cc2)C1=O (centres unmarked)	11.4
O=c1oc2cc([N+](=O)[O-])ccc2nc1/C=C(O)/C=C/c1ccccc1	15.5

— publication PMC4336329 (PLoS ONE, 2015)
